{
  "source": "PubChem BioAssay AID493208",
  "about": "(National Center for Advancing Translational Sciences (NCATS), 2011)",
  "note": "In all, about 44,000 compounds went through this assay and about 340 (0.77%) were called active. About 5% were inconclusive and are not listed. Calls come from the whole dose curve; as a rule, active = well fitted inhibition curve with a large enough effect; inconclusive = small, poorly fitted or top-dose-only effect; inactive = flat fitted curve, though single readings scatter. Some of the results follow. Potency is the fitted concentration of half-maximal effect.",
  "data": [
    {"assay": "Acumen qHTS Assay for Inhibitors of the mTORC1 Signaling Pathway in MEF (Tsc2-/-, p53-/-) Cells: Sytravon; note: nearly all actives have a fitted effect of over 50% in size;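 for activity change, negative = inhibition: plate controls were DMSO for no effect and rapamycin for full effect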", "settings": "phospho-rpS6 immunofluorescence/PI, 24 h; series mostly up to 38.3 µM; activity change, negative = inhibition: at the top concentration", "outline": "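Immunofluorescence of rpS6 phosphorylation in Tsc2-/-, p53-/- MEFs after 24 h compound exposure, normalized to propidium iodide signal. Activity is expressed as % positive cells, thresholded with 7.5 nM rapamycin.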", "values": [
      {"smiles": "COc1ccc(CNc2ncnc3c2c(-c2ccccc2)cn3-c2ccccc2)cc1", "activity change, negative = inhibition": "inactive: -4.36%"},
      {"smiles": "CN1CC(=O)N(CC(=O)Nc2ccc(Cl)c(C(F)(F)F)c2)c2ccccc2C1=O", "activity change, negative = inhibition": "inactive: -2.39%"},
      {"smiles": "Cc1c(-c2cccc(NC(=O)C(C)(C)C)c2)nc2ncccn12", "activity change, negative = inhibition": "inactive: -0.112%"},
      {"smiles": "Cc1ccc(-c2nc(SCc3ccc(Br)cc3)n3[nH]c(=O)cc3n2)cc1", "activity change, negative = inhibition": "inactive: -2.33%"},
      {"smiles": "COc1ccccc1CNC(=O)c1cccc(Nc2nc3ccccc3n3nnnc23)c1", "activity change, negative = inhibition": "inactive: -1.79%"},
      {"smiles": "Cc1ccc2nc(N3CCN(c4cccc(C)c4C)CC3)c3nnnn3c2c1", "activity change, negative = inhibition": "inactive: 0.346%"},
      {"smiles": "CCC1CN(C(=O)N2CCC(C(=O)NCc3cccs3)CC2)c2cc(C)ccc2O1", "note": "(stereo not drawn)", "activity change, negative = inhibition": "inactive: 9.31%"},
      {"smiles": "O=C(CC1(O)C(=O)N(CCc2ccccc2)c2ccc(Br)cc21)c1ccccc1O", "note": "(stereo not drawn)", "Potency": "active: 18.5 µM"},
      {"smiles": "CCOc1ccc(-c2cc(C(=O)NCc3ccccc3)c3c(-c4ccc(CC)cc4)[nH]nc3n2)cc1", "activity change, negative = inhibition": "inactive: -11.2%"},
      {"smiles": "O=C(COc1ccc(F)cc1)Nc1ccc2nc(SCc3ccccc3)sc2c1", "activity change, negative = inhibition": "inactive: -12.9%"},
      {"smiles": "CCc1cccc(NC(=O)CSc2ncc3c(n2)-c2ccccc2N(Cc2ccccc2C)S3(=O)=O)c1", "activity change, negative = inhibition": "inactive: 3.47%"},
      {"smiles": "Cc1ccccc1Nc1c2c(nc3nncn13)CCC2", "activity change, negative = inhibition": "inactive: -9.37%"},
      {"smiles": "CC(C)(C)C(=O)Nc1c(C(=O)N2CCN(c3ccc(F)cc3)CC2)oc2ccccc12", "activity change, negative = inhibition": "inactive: 3.28%"},
      {"smiles": "COc1ccc(NC(=O)Cc2csc(C)n2)cc1", "activity change, negative = inhibition": "inactive: -2.88%"},
      {"smiles": "Cc1cccc(-c2nc3scc(CCNC(=O)c4ccccc4Cl)n3n2)c1", "activity change, negative = inhibition": "inactive: -15.9%"},
      {"smiles": "CCOC(=O)C1CCN(S(=O)(=O)c2cc(-c3cc(C)no3)ccc2C)CC1", "activity change, negative = inhibition": "inactive: 0%"},
      {"smiles": "CCCCCn1c(=O)[nH]c2cc(C(=O)Nc3ccc(F)cc3)ccc2c1=O", "activity change, negative = inhibition": "inactive: 0%"},
      {"smiles": "CC(C)c1nn2c(=O)cc(COC(=O)c3ccc(NC(=O)CCc4ccccc4)cc3)nc2s1", "activity change, negative = inhibition": "inactive: 8.42%"},
      {"smiles": "Cc1cccc(NC(=O)CSc2nnc(CNC(=O)c3c(F)cccc3Cl)o2)c1C", "activity change, negative = inhibition": "inactive: -5.04%"},
      {"smiles": "CC1CCN(CCNC(=O)c2ccc(Cn3c(SCc4ccccc4)nc4cccnc43)cc2)CC1", "activity change, negative = inhibition": "inactive: -5.88%"},
      {"smiles": "Oc1c(C(c2ccc(F)cc2)N2CCCC2)sc2nc(-c3ccco3)nn12", "note": "(stereo not drawn)", "activity change, negative = inhibition": "inactive: -1.37%"},
      {"smiles": "Cc1ccc(S(=O)(=O)c2cn(C)c3cc(N4CCOCC4)c(F)cc3c2=O)c(C)c1", "activity change, negative = inhibition": "inactive: 3.13%"},
      {"smiles": "COc1ccc(N2CCN(c3ncnc4c3nc3n4CCCCC3)CC2)cc1", "activity change, negative = inhibition": "inactive: 3.16%"},
      {"smiles": "Cc1ccc(CCNC(=O)C2COc3ccccc3C2)cc1", "note": "(stereo not drawn)", "activity change, negative = inhibition": "inactive: -4.61%"},
      {"smiles": "Cc1ccc(Cl)cc1-n1c(=O)c2sc3ccccc3c2n(CC(=O)NC2CCCC2)c1=O", "activity change, negative = inhibition": "inactive: 0.0656%"},
      {"smiles": "Cc1ccc2c(c1)-c1onc(C(=O)N3CCN(c4cc(C)ccc4C)CC3)c1CO2", "activity change, negative = inhibition": "inactive: 5.7%"},
      {"smiles": "Cc1cc(C)n(-c2nc3cc(Cl)ccc3nc2N2CCN(c3cccc(C)c3C)CC2)n1", "activity change, negative = inhibition": "inactive: 5.23%"},
      {"smiles": "COc1ccccc1CNS(=O)(=O)c1c(C(=O)N2CCC(C)CC2)c(C)n(C)c1C", "activity change, negative = inhibition": "inactive: 0%"},
      {"smiles": "Cc1ccc(CCNC(=O)Cn2ncc3c([nH]c4ccccc43)c2=O)cc1", "activity change, negative = inhibition": "inactive: 2.28%"},
      {"smiles": "CCCCCN1C(C(=O)c2ccccc2)=C(NC(=O)c2ccc(OC)c(OC)c2)c2ccccc2S1(=O)=O", "activity change, negative = inhibition": "inactive: -2.63%"},
      {"smiles": "COc1ccc(C)cc1NC(=O)CSc1nc(=O)n(Cc2cccnc2)c2c1CCC2", "activity change, negative = inhibition": "inactive: -10.9%"},
      {"smiles": "COC(=O)c1ccccc1NC(=O)CSc1cc(-c2ccccc2)nc(C)n1", "activity change, negative = inhibition": "inactive: 2.42%"},
      {"smiles": "Clc1ccc(-c2ccc(CNCCSc3nnnn3-c3ccccc3)o2)cc1", "activity change, negative = inhibition": "inactive: -4.59%"},
      {"smiles": "O=C(CCn1c(=O)c2cccn2c2ccc(F)cc21)NCCc1ccc(Cl)cc1", "activity change, negative = inhibition": "inactive: 8.22%"},
      {"smiles": "COc1ccc(NC(=O)N2CCC(CN3CCCC3)CC2)c(OC)c1", "activity change, negative = inhibition": "inactive: -0.207%"},
      {"smiles": "O=C(C1CCCN(S(=O)(=O)c2cccc3nonc23)C1)N1CCN(c2ccccc2F)CC1", "note": "(stereo not drawn)", "activity change, negative = inhibition": "inactive: -2.91%"},
      {"smiles": "COc1ccc(C2(CNC(=O)C(=O)Nc3ccc(C)c(Cl)c3)CCCC2)cc1OC", "activity change, negative = inhibition": "inactive: -0.97%"},
      {"smiles": "CCN(CC)S(=O)(=O)c1nnc(NC(=O)COc2ccccc2)s1", "activity change, negative = inhibition": "inactive: -17.2%"},
      {"smiles": "CC(=O)c1ccc(N2C(=O)N(Cc3ccc(F)cc3)c3ccccc3S2(=O)=O)cc1", "activity change, negative = inhibition": "inactive: 1.53%"},
      {"smiles": "CCN1CCN(c2oc(-c3ccc(COc4ccc(OC)cc4)o3)nc2C#N)CC1", "activity change, negative = inhibition": "inactive: -10.1%"},
      {"smiles": "CC(C)(C)OC(=O)N1CCC(c2c(C(=O)NCCN3CCOCC3)cnn2-c2cccc(F)c2)CC1", "activity change, negative = inhibition": "inactive: 4.52%"},
      {"smiles": "COc1ccc(OC)c(C(=O)CN2C(=O)N(c3cc(C)cc(C)c3)S(=O)(=O)c3ccccc32)c1", "activity change, negative = inhibition": "inactive: -0.719%"},
      {"smiles": "Clc1cccc(-n2ncc3c(NCCC4=CCCCC4)ncnc32)c1", "activity change, negative = inhibition": "inactive: 13.1%"},
      {"smiles": "COc1ccc(-c2nc(SCC(=O)NCc3nc4ccccc4n3C)n3[nH]c(=O)cc3n2)cc1", "activity change, negative = inhibition": "inactive: -8.26%"},
      {"smiles": "CCCCN1C(=O)C(NC(=O)c2ccc(C(C)(C)C)cc2)(C(F)(F)F)C(C(=O)OC)=C1C", "note": "(stereo not drawn)", "activity change, negative = inhibition": "inactive: -18.3%"},
      {"smiles": "Cc1ccc(NC(=O)CSc2nnc(C)s2)c(C)c1", "activity change, negative = inhibition": "inactive: 7.38%"},
      {"smiles": "COc1ccc(NC(=O)C2CCN(c3nc4ccccc4[nH]3)CC2)cc1OC", "activity change, negative = inhibition": "inactive: 4.84%"},
      {"smiles": "Cc1cc(O)c(C(c2ccc(F)cc2)N2CCN(c3ccccc3)CC2)c(=O)n1Cc1ccco1", "note": "(stereo not drawn)", "activity change, negative = inhibition": "inactive: 1.28%"}
    ]}
  ]
}
